Changes are numbered by the printed parent chain; changes in the protein carry UniProt numbers. This is one part of the list.
T1: RBFOX1 RRM (Homo sapiens, UniProt Q9NWB1 109-208)
T1 sequence: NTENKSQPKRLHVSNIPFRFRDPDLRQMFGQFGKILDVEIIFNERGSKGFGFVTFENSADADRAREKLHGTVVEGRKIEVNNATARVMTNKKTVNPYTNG

B1: UCUGUUU (DNA:RNA)
RNA: GGGAGACCGGAAUUCAGAUUGUCCUCUGUUUUUAAAUCCCGUCGUAGCCACCA
DNA 1: CAATCTGAATTCCGGTCTCCC
DNA 2: TGGTGGCTACGACGGGATT
B2: GGAGAGU (DNA:RNA)
RNA: B1 RNA with U25G, C26G, U27A, U29A, U30G
DNA 1: CAATCTGAATTCCGGTCTCCC
DNA 2: TGGTGGCTACGACGGGATT
B3: UCCGACU (DNA:RNA)
RNA: B1 RNA with U27C, U29A, U30C
DNA 1: CAATCTGAATTCCGGTCTCCC
DNA 2: TGGTGGCTACGACGGGATT
B4: CGACUCC (DNA:RNA)
RNA: B1 RNA with U25C, C26G, U27A, G28C, U30C, U31C
DNA 1: CAATCTGAATTCCGGTCTCCC
DNA 2: TGGTGGCTACGACGGGATT
B5: AGUCGCC (DNA:RNA)
RNA: B1 RNA with U25A, C26G, G28C, U29G, U30C, U31C
DNA 1: CAATCTGAATTCCGGTCTCCC
DNA 2: TGGTGGCTACGACGGGATT
B6: UGUUCCA (DNA:RNA)
RNA: B1 RNA with C26G, G28U, U29C, U30C, U31A
DNA 1: CAATCTGAATTCCGGTCTCCC
DNA 2: TGGTGGCTACGACGGGATT
B7: GUCAACA (DNA:RNA)
RNA: GGGAGACCGGAAUUCAGAUUGUCCGUCAACAUUAAAUCCCGUCGUAGCCACCA
DNA 1: CAATCTGAATTCCGGTCTCCC
DNA 2: TGGTGGCTACGACGGGATT
B8: AACCUGC (DNA:RNA)
RNA: B7 RNA with G25A, U26A, A28C, A29U, C30G, A31C
DNA 1: CAATCTGAATTCCGGTCTCCC
DNA 2: TGGTGGCTACGACGGGATT
B9: GCCGAUC (DNA:RNA)
RNA: B7 RNA with U26C, A28G, C30U, A31C
DNA 1: CAATCTGAATTCCGGTCTCCC
DNA 2: TGGTGGCTACGACGGGATT
B10: CCAAUGU (DNA:RNA)
RNA: B1 RNA with U25C, U27A, G28A, U30G
DNA 1: CAATCTGAATTCCGGTCTCCC
DNA 2: TGGTGGCTACGACGGGATT
B11: CCGUACC (DNA:RNA)
RNA: B7 RNA with G25C, U26C, C27G, A28U, A31C
DNA 1: CAATCTGAATTCCGGTCTCCC
DNA 2: TGGTGGCTACGACGGGATT
B12: AAAACUU (DNA:RNA)
RNA: B1 RNA with U25A, C26A, U27A, G28A, U29C
DNA 1: CAATCTGAATTCCGGTCTCCC
DNA 2: TGGTGGCTACGACGGGATT
B13: ACACUAU (DNA:RNA)
RNA: B1 RNA with U25A, U27A, G28C, U30A
DNA 1: CAATCTGAATTCCGGTCTCCC
DNA 2: TGGTGGCTACGACGGGATT
B14: UUACGAC (DNA:RNA)
RNA: B7 RNA with G25U, C27A, A28C, A29G, C30A, A31C
DNA 1: CAATCTGAATTCCGGTCTCCC
DNA 2: TGGTGGCTACGACGGGATT
B15: GUGAAAG (DNA:RNA)
RNA: B7 RNA with C27G, C30A, A31G
DNA 1: CAATCTGAATTCCGGTCTCCC
DNA 2: TGGTGGCTACGACGGGATT
B16: UAGUCGA (DNA:RNA)
RNA: B7 RNA with G25U, U26A, C27G, A28U, A29C, C30G
DNA 1: CAATCTGAATTCCGGTCTCCC
DNA 2: TGGTGGCTACGACGGGATT
B17: GAAUUAG (DNA:RNA)
RNA: B7 RNA with U26A, C27A, A28U, A29U, C30A, A31G
DNA 1: CAATCTGAATTCCGGTCTCCC
DNA 2: TGGTGGCTACGACGGGATT
B18: CAGUAUC (DNA:RNA)
RNA: B7 RNA with G25C, U26A, C27G, A28U, C30U, A31C
DNA 1: CAATCTGAATTCCGGTCTCCC
DNA 2: TGGTGGCTACGACGGGATT
B19: UGGCAAC (DNA:RNA)
RNA: B7 RNA with G25U, U26G, C27G, A28C, C30A, A31C
DNA 1: CAATCTGAATTCCGGTCTCCC
DNA 2: TGGTGGCTACGACGGGATT
B20: GUUCUGA (DNA:RNA)
RNA: B7 RNA with C27U, A28C, A29U, C30G
DNA 1: CAATCTGAATTCCGGTCTCCC
DNA 2: TGGTGGCTACGACGGGATT

Each binder was assayed against T1, RBFOX1 RRM (assay: EMSA; HiTS-Eq, 1 nM pool, 10 min; buffer printed only for the single-RNA assays: 10 mM Tris pH 7.5, 150 mM NaCl, 3.4 mM EDTA, 0.001% NP-40, 30 C). Details: tags: His6 N-terminal (pET28a); label: 5' 32P.
Summary of the method: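 Relative association constants, normalised to the cognate motif, were derived by comparing read counts of each RNA species with those of the control reaction. The RNA sequenced was the free fraction, separated by 8% native PAGE after a 10 min equilibration in 50 µL of 1 nM 5′-radiolabelled RNA (7 randomized nucleotides) with increasing concentrations of purified wild-type or mutant RbFox RRM.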

Row | Binder | binding signal
1 | B1 | 0.018 KA relative to UGCAUGU
2 | B2 | 0.0264 KA relative to UGCAUGU
3 | B3 | 0.00823 KA relative to UGCAUGU
4 | B4 | 0.00792 KA relative to UGCAUGU
5 | B5 | 0.0119 KA relative to UGCAUGU
6 | B6 | 0.0162 KA relative to UGCAUGU
7 | B7 | 0.00281 KA relative to UGCAUGU
8 | B8 | 0.00657 KA relative to UGCAUGU
9 | B9 | 0.0172 KA relative to UGCAUGU
10 | B10 | 0.00233 KA relative to UGCAUGU
11 | B11 | 0.00711 KA relative to UGCAUGU
12 | B12 | 0.0016 KA relative to UGCAUGU
13 | B13 | 0.00183 KA relative to UGCAUGU
14 | B14 | 0.00463 KA relative to UGCAUGU
15 | B15 | 0.0155 KA relative to UGCAUGU
16 | B16 | 0.0129 KA relative to UGCAUGU
17 | B17 | 0.00996 KA relative to UGCAUGU
18 | B18 | 0.00592 KA relative to UGCAUGU
19 | B19 | 0.0191 KA relative to UGCAUGU
20 | B20 | 0.0306 KA relative to UGCAUGU

From article PMC9911399, “Two distinct binding modes provide the RNA-binding protein RbFox with extraordinary sequence specificity”
